In PubChem BioAssay (NCI) one finds GI50 and TGI data, which are given here for four compounds.

SMILES strings stand for the structures.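 Protocol summary: plate cells (96-well), add compound at 5 concentrations, incubate 48 h, interpolate endpoints linearly. At the GI50, growth is halved. TGI: concentration producing complete growth inhibition.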

The assay concerns NCI-H322M lung. As to the kind of experiment: inhibition of tumour cell growth, NCI panel, 48 h.

With `CN(C)S(=O)(=O)c1oc(-c2ccccc2)nc1C#N`, the GI50 was 43 µM and the TGI was greater than 100 µM.
The like results for `CC(C)(C)c1ccc(C(=O)Nc2sc3c(c2C(N)=O)CCC(O)C3)cc1` (stereo not drawn) were, in that order, 6.82 µM and 20.7 µM.
With `Nn1c(=O)n(-c2cccc(C(F)(F)F)c2)c(=O)c2cc(-c3ccc(F)cc3F)ccc21`, the GI50 is 1.78 µM and the TGI stood at 9.03 µM.
On to `CCN(CC)CCOc1ccc(C(=C(C)c2ccc(OC)cc2)c2ccc(OCCN(CC)CC)cc2)cc1`, for which the GI50 is 1.79 µM and the TGI stood at 6.75 µM.
